Measurements as given in article PMC9360036.
Results are given in words; binding and its absence hold for the method and conditions named. Binding seen in cells or lysates may run through a third protein. Some results given as binding are weak or reduced against the parent protein; the word gives no strength.

Sequences of proteins named here, by UniProt entry; tags and fusion partners are left off.
UniProt Q5VSL9: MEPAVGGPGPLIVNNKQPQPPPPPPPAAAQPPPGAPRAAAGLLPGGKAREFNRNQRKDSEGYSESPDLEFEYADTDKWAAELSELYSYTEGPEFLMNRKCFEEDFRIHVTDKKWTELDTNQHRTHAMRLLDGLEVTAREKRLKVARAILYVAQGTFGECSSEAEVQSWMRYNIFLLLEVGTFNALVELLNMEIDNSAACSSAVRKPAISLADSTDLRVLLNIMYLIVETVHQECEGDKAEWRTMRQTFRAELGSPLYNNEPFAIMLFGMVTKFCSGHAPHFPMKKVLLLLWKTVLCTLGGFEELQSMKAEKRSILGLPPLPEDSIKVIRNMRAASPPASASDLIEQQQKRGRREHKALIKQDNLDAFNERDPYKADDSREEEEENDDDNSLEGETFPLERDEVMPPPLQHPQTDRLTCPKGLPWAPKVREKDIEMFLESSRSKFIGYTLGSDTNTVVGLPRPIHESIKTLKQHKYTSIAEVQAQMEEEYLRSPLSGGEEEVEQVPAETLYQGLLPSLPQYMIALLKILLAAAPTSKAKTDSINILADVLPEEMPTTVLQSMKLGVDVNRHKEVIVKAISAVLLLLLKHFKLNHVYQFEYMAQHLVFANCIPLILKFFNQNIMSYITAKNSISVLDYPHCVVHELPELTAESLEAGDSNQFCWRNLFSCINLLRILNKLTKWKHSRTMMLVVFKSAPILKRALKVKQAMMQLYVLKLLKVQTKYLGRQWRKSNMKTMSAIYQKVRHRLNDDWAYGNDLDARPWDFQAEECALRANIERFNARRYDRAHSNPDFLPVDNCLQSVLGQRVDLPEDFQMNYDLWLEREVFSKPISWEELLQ

Assays:
[1] = target: T1, MAP4K4 kinase domain (KD, 1-289) (human) (UniProt O95819); assay: co-IP; anti-FLAG antibody on Dynabeads Protein G, lysates of DAOY cells stably expressing FLAG-tagged MAP4K4 constructs (50 mM Tris-HCl pH 7.5, 150 nM NaCl as printed, 0.3% NP-40), 3 h at 4 °C; immunoblot
T1 sequence: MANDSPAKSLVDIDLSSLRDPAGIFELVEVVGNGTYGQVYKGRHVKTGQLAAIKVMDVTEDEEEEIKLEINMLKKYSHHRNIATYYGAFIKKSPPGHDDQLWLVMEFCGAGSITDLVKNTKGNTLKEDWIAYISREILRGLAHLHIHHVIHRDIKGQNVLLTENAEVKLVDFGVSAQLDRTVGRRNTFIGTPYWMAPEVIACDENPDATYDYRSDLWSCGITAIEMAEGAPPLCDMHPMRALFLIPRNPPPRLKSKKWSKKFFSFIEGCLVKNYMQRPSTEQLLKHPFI

[2] = target: T2, MAP4K4 intermediate domain 1 (ID1, 290-634) (human) (UniProt O95819); assay: as above
T2 sequence: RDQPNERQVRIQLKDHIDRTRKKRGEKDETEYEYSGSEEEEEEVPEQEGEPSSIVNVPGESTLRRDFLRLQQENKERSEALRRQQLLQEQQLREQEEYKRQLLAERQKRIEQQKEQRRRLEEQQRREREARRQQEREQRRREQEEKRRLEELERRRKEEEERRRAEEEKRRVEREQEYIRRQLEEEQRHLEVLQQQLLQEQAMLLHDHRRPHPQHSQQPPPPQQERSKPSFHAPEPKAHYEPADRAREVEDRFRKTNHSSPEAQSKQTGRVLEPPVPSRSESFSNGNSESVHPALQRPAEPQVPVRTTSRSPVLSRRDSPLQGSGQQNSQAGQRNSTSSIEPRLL

[3] = target: T3, MAP4K4 intermediate domain 2 (ID2, 635-954) (human) (UniProt O95819); assay: as above
T3 sequence: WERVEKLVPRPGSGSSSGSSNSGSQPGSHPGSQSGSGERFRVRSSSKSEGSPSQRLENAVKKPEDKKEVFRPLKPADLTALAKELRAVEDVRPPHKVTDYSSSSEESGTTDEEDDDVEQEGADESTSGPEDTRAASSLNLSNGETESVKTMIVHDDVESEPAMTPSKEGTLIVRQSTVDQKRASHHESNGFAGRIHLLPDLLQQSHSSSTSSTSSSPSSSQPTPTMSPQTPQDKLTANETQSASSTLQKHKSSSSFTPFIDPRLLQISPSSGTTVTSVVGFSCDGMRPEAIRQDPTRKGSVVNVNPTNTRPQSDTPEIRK

[4] = target: full-length MAP4K4-FLAG (human) (UniProt O95819); assay: co-IP; anti-FLAG IP (Dynabeads Protein G) from DAOY cells expressing FLAG-tagged MAP4K4, siCTRL or siSTRN3, ± 100 ng/ml bFGF 15 min; washed in lysis buffer and kinase assay buffer; the IP fraction was then used for the in vitro VASP kinase assay
[5] = target: STRN-interacting protein 1 (STRIP1) (human (endogenous in DAOY)) (UniProt Q5VSL9); assay: co-IP; anti-STRN4 or anti-STRIP1 antibody on Dynabeads Protein G, endogenous proteins in lysates of DAOY cells transfected for 48 h with the indicated siRNA (among them against MAP4K4 and STRN3); normal rabbit IgG as control; immunoblot
[6] = target: 3xFLAG-BioID2-MAP4K4 (human) (UniProt O95819); assay: co-IP; anti-FLAG antibody on Dynabeads Protein G, HEK-293T lysate (50 mM Tris-HCl pH 7.5, 150 nM NaCl as printed, 0.3% NP-40), 3 h at 4 °C; immunoblot

Question: How did the binding [1] turn out when “STRN-interacting protein 1 (STRIP1) (from UniProt Q5VSL9 1-837)” was run?
Answer: no binding

Question: What about the binding [2] of the same molecule?
Answer: no binding

Question: What about the binding [3] of the same molecule?
Answer: no binding

B1: striatin 3 (STRN3) (protein, UniProt Q13033 1-797)
chain: MDELAGGGGGGPGMAAPPRQQQGPGGNLGLSPGGNGAAGGGGPPASEGAGPAAGPELSRPQQYTIPGILHYIQHEWARFEMERAHWEVERAELQARIAFLQGERKGQENLKKDLVRRIKMLEYALKQERAKYHKLKYGTELNQGDLKMPTFESEETKDTEAPTAPQNSQLTWKQGRQLLRQYLQEVGYTDTILDVRSQRVRSLLGLSNSEPNGSVETKNLEQILNGGESPKQKGQEIKRSSGDVLETFNFLENADDSDEDEENDMIEGIPEGKDKHRMNKHKIGNEGLAADLTDDPDTEEALKEFDFLVTAEDGEGAGEARSSGDGTEWDKDDLSPTAEVWDVDQGLISKLKEQYKKERKGKKGVKRANRTKLYDMIADLGDDELPHIPSGIINQSRSASTRMTDHEGARAEEAEPITFPSGGGKSFIMGSDDVLLSVLGLGDLADLTVTNDADYSYDLPANKDAFRKTWNPKYTLRSHFDGVRALAFHPVEPVLVTASEDHTLKLWNLQKTVPAKKSASLDVEPIYTFRAHIGPVLSLAISSNGEQCFSGGIDATIQWWNMPSPSVDPYDTYEPNVLAGTLVGHTDAVWGLAYSGIKNQLLSCSADGTVRLWNPQEKLPCICTYNGDKKHGIPTSVDFIGCDPAHMVTSFNTGSAVIYDLETSQSLVILSSQVDSGLQSNNHINRVVSHPTLPVTITAHEDRHIKFFDNKTGKMIHSMVAHLDAVTSLAVDPNGIYLMSGSHDCSIRLWNLDSKTCVQEITAHRKKLDESIYDVAFHSSKAYIASAGADALAKVFV
Question: B1 was tested. Which binding [4] did it give?
Answer: binds

Question: What about the binding [5] of the same molecule?
Answer: binds

Question: And the binding [6]?
Answer: binds

B2: striatin 4 (STRN4) (protein, UniProt Q9NRL3 1-753)
chain: MMEERAAAAVAAAASSCRPLGSGAGPGPTGAAPVSAPAPGPGPAGKGGGGGGSPGPTAGPEPLSLPGILHFIQHEWARFEAEKARWEAERAELQAQVAFLQGERKGQENLKTDLVRRIKMLEYALKQERAKYHKLKFGTDLNQGEKKADVSEQVSNGPVESVTLENSPLVWKEGRQLLRQYLEEVGYTDTILDMRSKRVRSLLGRSLELNGAVEPSEGAPRAPPGPAGLSGGESLLVKQIEEQIKRNAAGKDGKERLGGSVLGQIPFLQNCEDEDSDEDDELDSVQHKKQRVKLPSKALVPEMEDEDEEDDSEDAINEFDFLGSGEDGEGAPDPRRCTVDGSPHELESRRVKLQGILADLRDVDGLPPKVTGPPPGTPQPRPHEDVFIMDTIGGGEVSLGDLADLTVTNDNDLSCDLSDSKDAFKKTWNPKFTLRSHYDGIRSLAFHHSQSALLTASEDGTLKLWNLQKAVTAKKNAALDVEPIHAFRAHRGPVLAVAMGSNSEYCYSGGADACIHSWKIPDLSMDPYDGYDPSVLSHVLEGHGDAVWGLAFSPTSQRLASCSADGTVRIWDPSSSSPACLCTFPTASEHGVPTSVAFTSTEPAHIVASFRSGDTVLYDMEVGSALLTLESRGSSGPTQINQVVSHPNQPLTITAHDDRGIRFLDNRTGKPVHSMVAHLDAVTCLAVDPNGAFLMSGSHDCSLRLWSLDNKTCVQEITAHRKKHEEAIHAVACHPSKALIASAGADALAKVFV
Question: How did the binding [1] turn out when B2 was run?
Answer: no binding

Question: What about the binding [2] of the same molecule?
Answer: no binding

Question: What about the binding [3] of the same molecule?
Answer: no binding

Question: What about the binding [5] of the same molecule?
Answer: binds
